According to PubChem BioAssay AID2675 (National Center for Advancing Translational Sciences (NCATS), 2010):
Screen size: about 280,000 compounds; about 100 (0.036%) were called active. Inconclusive results, whose numbers are uncertain, are shown with a selection of clear calls. Calls follow the shape of the dose curve; as a rule, active = well fitted inhibition curve with a large enough effect in the signal ratio, with a control signal flat (not every such curve was filed as active); inconclusive = small, poorly fitted or top-dose-only effect, or effect the other way, or a change in a side signal; inactive = no such curve, though single readings can be large or run the other way; the % refers to the signal ratio. A potency beside an inconclusive call is a rough fit, not a confirmed value. “Side channel” marks fits to a control or component signal instead of the main read-out.

The compounds below were run against Muscleblind-like protein 1 (Homo sapiens) (UniProt Q9NR56) (assay: qHTS Assay for Inhibitors of MBNL1-poly(CUG) RNA binding). Conditions: TR-FRET MBNL1-His/biotin-(CUG)12 binding, 665/545 ratio; activity change, negative = inhibition: at 57.5 µM (top of the series).
Chain of UniProt Q9NR56 (Q9NR56 whole entry, looked up): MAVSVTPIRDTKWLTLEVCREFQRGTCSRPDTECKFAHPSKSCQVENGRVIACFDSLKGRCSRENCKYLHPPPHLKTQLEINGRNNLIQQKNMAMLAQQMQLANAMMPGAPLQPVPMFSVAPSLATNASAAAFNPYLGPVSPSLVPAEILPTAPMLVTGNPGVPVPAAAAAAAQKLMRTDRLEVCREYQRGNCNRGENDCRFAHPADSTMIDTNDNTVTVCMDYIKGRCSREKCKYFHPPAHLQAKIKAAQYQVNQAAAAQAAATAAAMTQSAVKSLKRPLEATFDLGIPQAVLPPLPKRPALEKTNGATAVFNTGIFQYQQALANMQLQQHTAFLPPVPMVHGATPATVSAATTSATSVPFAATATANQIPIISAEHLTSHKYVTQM
Summary of the method: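 Compound titration spanned 92 nM–58 uM against the MBNL1-His/biotin-(CUG)12 complex. After 60 min at room temperature with 5 nM streptavidin-XL665 and 0.055 ng/ul terbium anti-His, ratiometric 665/545 nm emission (Ex 340 nm) normalized to controls.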
% is scaled to controls: 0 for no effect and ±100 for the full control effect; potency is read from the fitted curve at half-maximal effect; tags tell the direction and shape of the fitted curve or compound fluorescence and quenching.

Row | SMILES | Potency | activity change, negative = inhibition
1 | Fc1ccc(NC(=S)Nc2ccc3nccnc3c2)cc1 | inconclusive: 14.1 µM [quencher, side channel, partial curve] | –
2 | COC(=O)c1cc([N+](=O)[O-])c(-n2ccnc2)c([N+](=O)[O-])c1 | inconclusive: 17.8 µM [quencher, side channel, partial curve] | –
3 | CCSc1nc2ccccc2n1C(=O)c1ccc(S(=O)(=O)N2CCCCCC2)cc1 | inconclusive: 0.891 µM [fluorescent, side channel, single point] | –
4 | CCCN1CNC(=S)N(c2cccc(C)c2C)C1 | – | inactive: -2.94%
5 | CCCCn1c(N)c(N(CC)C(=O)c2ccc3c(c2)S(=O)(=O)c2ccccc2C3=O)c(=O)[nH]c1=O | inconclusive: 12.6 µM [quencher, side channel, partial curve] | –
6 | COc1ccc(C(=O)N2CCc3cc4c(cc3C2C)OCCCO4)cc1 (configuration not stated) | – | inactive: -8.64%
7 | COc1cc2c3nnc(-c4ccc(F)cc4)c-3cn(Cc3ccccc3)c2cc1OC | inconclusive: 11.2 µM [quencher, side channel, single point] | –
8 | O=C(NN1C(=O)/C(=C/c2cccc(O)c2)SC1=S)c1ccccc1O | inconclusive: 31.6 µM [quencher, side channel, partial curve] | –
9 | COc1ccc(CCNC(=O)Nc2ccccc2[N+](=O)[O-])cc1 | inconclusive: 25.1 µM [quencher, side channel, partial curve] | –
10 | C=CCN1C=C2C(=O)C(C)(OC(=O)C3CCCC3)C(=O)C(c3ccccc3)=C2C=C1CCCC(=O)OC (configuration not stated) | inconclusive: 25.1 µM [quencher, side channel, single point] | –
11 | NC(=O)c1cc2ccc(O)cc2oc1=Nc1ccccc1 | inconclusive: 14.1 µM [quencher, side channel, partial curve] | –
12 | Cc1ccc(C(=O)N2CCN(c3cc4c(cc3[N+](=O)[O-])n(C)c(=O)n4C)CC2)cc1 | inconclusive: 3.16 µM [quencher, side channel, full curve] | –
13 | O=P(O)(CN1CCCCC1)CN1CCCCC1 | inconclusive: 7.08 µM [quencher, side channel, single point] | –
14 | COc1cccc(OCc2nc3ncc(Br)cc3[nH]2)c1 | – | inactive: 0.387%
15 | Cc1nc(NC(=O)CSc2nnc(-c3ccc4c(c3)OCO4)o2)c(Cl)cc1Cl | inconclusive: 0.794 µM [fluorescent, side channel, full curve] | –
16 | CC(c1ccccc1)C1CC(=O)N(c2ccc([N+](=O)[O-])cc2)C1=O (configuration not stated) | inconclusive: 14.1 µM [quencher, side channel, partial curve] | –
17 | Cc1ccc(C(=O)O)cc1NC(=O)c1cccs1 | – | inactive: -22.2%
18 | CCOc1ccc(S(=O)(=O)NC2CCCC2)cc1 | – | inactive: -2.38%
19 | O=C(C1=C(O)C(=O)N(CCN2CCOCC2)C1c1cccc(Br)c1)c1cc2ccccc2o1 (configuration not stated) | – | inactive: 234%
20 | N#C/C(=C\c1ccc([N+](=O)[O-])cc1)C(=O)NCCCn1ccnc1 | inconclusive: 15.8 µM [quencher, side channel, partial curve] | –
21 | CCC(SC1=NCCS1)C(=O)Nc1nnc(-c2ccccc2OC)s1 (configuration not stated) | inconclusive: 7.08 µM [quencher, side channel, single point] | –

Row | SMILES | Potency | activity change, negative = inhibition
22 | CC(C)N1CC(C(=O)Nc2ccccc2)CC1=O (configuration not stated) | inconclusive: 8.91 µM [quencher, side channel, single point] | –
23 | Cc1noc(C)c1N=Nc1ccc(Br)cc1C(=O)O | inconclusive: 35.5 µM [quencher, side channel, single point] | –
24 | CCOc1ccccc1NC(=O)CCNS(=O)(=O)c1cccc2nonc12 | inconclusive: 12.6 µM [quencher, side channel, partial curve] | –
25 | CN(CCO)c1ccc(-c2n[nH]c(=O)c3ccccc23)cc1[N+](=O)[O-] | inconclusive: 10 µM [quencher, side channel, partial curve] | –
26 | O=C(CN1CCC(NC(=O)C2CC2)CC1)Nc1ccccc1[N+](=O)[O-] | inconclusive: 15.8 µM [quencher, single point] | –
27 | COCc1cc(=O)n2[nH]cc(-c3ccccc3)c2n1 | – | inactive: 14.6%
28 | COc1cc(C)nc(NC(=S)N(C)C(=O)c2ccccc2)n1 | – | inactive: 0.802%
29 | Cc1nc(N)nc(SCc2ccc([N+](=O)[O-])cc2)c1N | inconclusive: 25.1 µM [quencher, side channel, partial curve] | –
30 | C=CCn1c(-c2ccccc2)nc2nc3ccccc3nc21 | inconclusive: 7.94 µM [quencher, partial curve] | –
31 | CCN1CCN(C(=O)CNC(=O)c2nn(-c3ccc(OC)cc3)c(=O)c3ccccc23)CC1 | inconclusive: 17.8 µM [quencher, side channel, partial curve] | –
32 | Cc1cccc(N2CCN(CC(=O)NCc3ccccc3)CC2)c1C | – | inactive: -9.68%
33 | COc1ccc(/C=N/NC(=O)c2ccc(=O)[nH]n2)cc1OC | inconclusive: 28.2 µM [quencher, side channel, single point] | –
34 | C=CCSc1nnc(NC(=O)CSc2nc(CCC)cc(=O)[nH]2)s1 | – | inactive: -7.97%
35 | C=CCNC(=S)N/N=C(\C)c1ccc(OC)cc1 | – | inactive: -5.77%
36 | Cc1nnc(-c2ccc(Oc3ccc(C)c(C)c3)c([N+](=O)[O-])c2)o1 | inconclusive: 20 µM [quencher, side channel, partial curve] | –
37 | Cc1cccc(NC(=S)NC(C)CCc2ccccc2)c1 (configuration not stated) | – | inactive: -11.8%
38 | Cc1cc(C(C)(C)C)cc(S(=O)(=O)Nc2ccc(O)c(C(=O)O)c2)c1C | – | inactive: -11.1%
39 | NC1=NN=C(N2N=C(c3ccco3)CC2(O)C(F)(F)F)n2ncnc2C1 (configuration not stated) | inconclusive: 39.8 µM [quencher, side channel, single point] | –
40 | Cn1cc(/C=C2\SC(=S)N(NC(=O)c3cccc(Cl)c3)C2=O)c2ccccc21 | – | inactive: -5.04%
41 | COc1ccc2[nH]c(=O)c(CNc3ccccc3C)cc2c1 | inconclusive: 10 µM [quencher, side channel, partial curve] | –
42 | CCOc1ccccc1NC(=O)CCS(=O)(=O)c1ccc(Br)cc1 | – | inactive: -5.68%
